Each structure is given as a SMILES string. In all, about 52,000 compounds went through this assay and about 4,300 (8.3%) were called active. Cut-off read from the data, not from the text of the source: active = survival mostly below about 52% (no sharp cut-off); inactive = mostly above about 56%. This is one part of the list.

For the assay, the system named is DeltatarO mutant. Briefly: growth inhibition of S. aureus wild type versus tarO mutant, primary screen, teichoic acid synthesis inhibitors, RN4220, OD600 (AID 463173). Particulars: OD600, 18 h, hits give low values, screened at 18.75 µg/mL (by protocol).
In the case of `CCOC(=O)CSc1nc2ccc(NC(=O)c3ccccc3F)cc2s1`, the survival is inactive: 66%.

As for `CCc1nonc1NC(=O)c1oc2ccccc2c1C`, the survival was inactive: 70%. Regarding `O=C(NC(NC(=O)c1ccco1)c1ccc(Br)cc1)c1ccco1`, the survival is inactive: 77%. For `CCOc1cc(C2c3c(-c4ccc(Br)cc4)n[nH]c3C(=O)N2c2ccc(Cl)cc2)ccc1O` (centres undefined) the value was active: 35%; for `O=C1C2c3ccccc3CCN2C(=O)CN1CCc1ccccc1` (centres undefined), inactive: 109%; for `COc1ccc(CNC(=O)CCS(=O)(=O)c2ccc3c(c2)oc(=O)n3C)cc1`, inactive: 75%. Regarding `CCN(CC)C(=O)CSc1nnc(COc2ccc(C)cc2)n1N`, the survival is inactive: 95%. Consider `CC1(C)CC(=O)C=C(Nc2ccccc2F)C1`, for which the survival is inactive: 80%. For `CCCCC(CC)CNC(=O)c1ccc2c(=O)n(Cc3ccc(OC)cc3)c(=O)[nH]c2c1` (centres undefined) the value was inactive: 84%; for `Cn1nc(C(=O)NCc2ccc(Cl)cc2)c2c1-c1ccccc1SC2`, inactive: 78%.

On to `Cc1cc(=O)n2nc(N3CCC(C(=O)Nc4ccc(C)c(Cl)c4)CC3)sc2n1`, for which the survival was inactive: 101%. With `COc1ccc(CNC(=O)Cc2c(C)c3c(cc(C)c4c(C)c(C)oc43)oc2=O)cc1`, the survival was inactive: 93%.

As for `CCSc1ncc(Cl)c(C(=O)Nc2nc3ccc(OC)cc3s2)n1`, the survival is inactive: 83%. Take `CCOc1ccc(NC(=O)C(NS(=O)(=O)c2ccc3c(c2)CCN3C(C)=O)C(C)C)cc1` (centres undefined): the survival is inactive: 124%. For `O=C(CSc1nc2ccccc2nc1Cc1ccc(Cl)cc1)NCCc1ccccc1` the value was inactive: 69%; for `CCOc1ccccc1NC(=O)c1nnn(CC(=O)Nc2ccc(OC)c(OC)c2)c1N`, inactive: 91%; for `Cc1ccc(CNC(=O)c2ccc3c(O)c(S(=O)(=O)c4ccccc4)c(=O)[nH]c3c2)cc1`, inactive: 94%.

With `CCOC(=O)N1CCC(NC(=O)c2ccc3c(c2)N(Cc2ccc(F)cc2)C(=O)c2ccccc2S3(=O)=O)CC1`, the survival was inactive: 98%. For `CCOc1ccccc1CC1C(=O)Nc2ccc(Br)cc21` (centres undefined) the value was inactive: 59%; for `COc1cccc(CNC(=O)C(NS(=O)(=O)c2ccc3c(c2)CCN3C(C)=O)C(C)C)c1` (centres undefined), inactive: 80%; for `COc1ccc(OC)c(C(C)NC(=O)Cn2c(=O)cc(C)c3c(C)nn(-c4ccc(C)cc4)c32)c1` (centres undefined), inactive: 55%. For `COc1ccc(/C=C2\CCOC2=O)cc1` the value was inactive: 88%; for `CCCCC(=O)Nc1ccc2nc(SCC(=O)N3CCCC3)sc2c1`, inactive: 88%; for `COc1ccccc1-c1cc(C(=O)N2CCCCC2C)no1` (centres undefined), active: 11%. For `COc1ccc(CNC(=O)c2nn(-c3ccccc3C)nc2CO)cc1` the value was inactive: 91%.

On to `CCOc1ccc(S(=O)(=O)N(CC(=O)NCCSc2ccccc2)c2ccccc2)cc1`, for which the survival is inactive: 95%. Take `O=C(Cn1c2ncccc2c(=O)n1-c1ccccc1)Nc1ccc(F)c(F)c1`: the survival was inactive: 107%. In the case of `O=C(NCc1ccc(Cl)cc1)C1CCCN(c2nc3ccccc3n3cccc23)C1` (centres undefined), the survival was inactive: 82%. For `Cc1cc(C)nc(N2CCCC(C)C2)n1` (centres undefined) the value was inactive: 87%; for `Cc1cc(N2CCCCC2)nc2ccc(NC(=O)/C=C/c3ccccc3Cl)cc12`, active: 44%; for `Cc1ccccc1Cn1c(=O)n(CCc2ccccc2)c(=O)c2ccccc21`, inactive: 64%. As to `CCn1cc(C(=O)OCC(=O)Nc2ccc(F)cc2F)c(=O)c2ccc(C)nc21`, the survival was inactive: 164%. `Cc1cccc(-c2nc(Cn3c(=O)cc(-c4ccccc4)c4c(C)nn(C)c43)c(C)o2)c1`: the survival is active: -5%. Consider `COC(=O)c1ccc(Cn2c(=O)cc(C(F)(F)F)c3c(C)nn(C)c32)cc1`, for which the survival was inactive: 95%. `COC(F)(C(=O)NC12CC3CC(CC(C3)C1)C2)C(F)(F)F` (centres undefined): the survival was inactive: 108%.

For `COc1ccc(OC)c(NC(=O)CSc2nc3ccccc3nc2N2CCCCC2)c1`, the survival is active: 5%. On to `CCCC(=O)OCc1cnc(C)c2oc(=O)c(C(=O)Nc3ccccc3)cc12`, for which the survival is inactive: 88%.

Turning to `COc1ccc(NC(=O)C2CCC(CNS(=O)(=O)c3ccc(Br)s3)CC2)cc1OC` (centres undefined), the survival was inactive: 75%.

For `COc1ccc(NC(=O)COc2ccc(S(=O)(=O)NC3CCCCC3)cc2)cc1OC`, the survival is inactive: 69%.

Turning to `CC(NC(=O)CCNS(=O)(=O)c1cccc2nsnc12)c1ccccc1` (centres undefined), the survival was inactive: 51%. `COc1ccc(Br)cc1C1Sc2ccccc2NC2=C1C(=O)c1ccccc12` (centres undefined): the survival was active: 31%.

As for `O=C(Nc1cccc(Cl)c1)c1cnc[nH]1`, the survival is inactive: 104%. For `Cc1ccc2c(=O)cc(CSCC(=O)Nc3nnc(C)s3)[nH]c2c1` the value was inactive: 107%; for `O=C(COc1ccccc1)Nc1nnc(S(=O)(=O)N2CCCC2)s1`, active: 39%; for `CCOc1ccc(-n2c(=O)c3c4c(sc3n(CC(=O)Nc3cccc(C(F)(F)F)c3)c2=O)CCCCC4)cc1`, inactive: 77%.

For `COc1ccccc1NC(=O)C(Cc1ccccc1)NS(=O)(=O)c1ccc2c(c1)c(=O)n(C)c(=O)n2C` (centres undefined), the survival was inactive: 112%.

For `O=C(Nc1ccc2oc(-c3ccc4ccccc4c3)nc2c1)c1ccccc1F`, the survival is inactive: 64%. In the case of `O=C(OCC1CCCO1)c1ccc2c(c1)N(Cc1ccccc1Cl)C(=O)c1ccccc1S2(=O)=O` (centres undefined), the survival was inactive: 113%. For `CCCCOc1cccc(NC(=O)CSc2nnc(C)s2)c1` the value was inactive: 50%; for `Cc1cc(Nc2cccc(C(F)(F)F)c2)nc2ccc(NC(=O)c3ccc(=O)[nH]c3)cc12`, active: 37%; for `O=C(NCc1ccc(F)cc1)c1c(O)nc2ccccn2c1=O`, active: 44%. For `COc1ccc(NC(=O)c2ccc(C3SCC(=O)N3Cc3ccco3)cc2)cc1` (centres undefined) the value was inactive: 78%; for `CN(Cc1ccccc1)c1ncnc2onc(-c3ccc(F)cc3)c12`, inactive: 81%. Take `COc1ccc(CNC(=O)C(C)n2ccc3cc(S(=O)(=O)N4CCCC4)ccc32)cc1OC` (centres undefined): the survival was inactive: 85%. For `Cc1cc(C)c(NC(=O)C2CCN(c3nnc(C)c4c(C)n(-c5ccccc5)nc34)CC2)c(C)c1` the value was active: 52%; for `COc1ccccc1NC(=O)C1=C(C)Nc2nc(SCc3ccccc3C)nn2C1CC(C)C` (centres undefined), inactive: 92%; for `COc1ccc(Cn2nnnc2CN(Cc2ccc(C)cc2)Cc2cc3cc4c(cc3[nH]c2=O)OCO4)cc1`, inactive: 90%. Regarding `COc1cc(Cl)c(C)cc1NC(=O)Cn1ncc2c([nH]c3ccccc32)c1=O`, the survival is inactive: 81%. For `COc1cccc(C(c2c(O)cc(C)n(Cc3ccco3)c2=O)N2CCN(c3ccccc3)CC2)c1` (centres undefined) the value was inactive: 68%; for `O=C(CSc1nccn1Cc1ccc(Cl)cc1)Nc1ccc2c(c1)OCCO2`, inactive: 94%. For `CCC(=O)N/N=C/c1ccc(-c2ccc(Cl)cc2)o1` the value was inactive: 63%; for `CCOCCCn1c(SCC(=O)Nc2ccc(C)cc2)nc2ccccc2c1=O`, inactive: 62%; for `Cc1cc(C)n(C(C)CC(=O)NCc2ccc(N(C)C)cc2)n1` (centres undefined), inactive: 71%. For `COC(=O)c1cc2sccc2n1Cc1nc(-c2ccc(Cl)cc2)oc1C` the value was inactive: 90%; for `CCc1ccccc1NC(=O)c1ccc2c(c1)N(Cc1cc(C)ccc1C)C(=O)c1ccccc1S2(=O)=O`, inactive: 84%; for `N#CC(C#N)=Cc1cn(-c2ccccc2)nc1C12CC3CC(CC(C3)C1)C2`, inactive: 88%. For `Cc1oc2ncn(C)c(=O)c2c1C(=O)NCCCN1CCCC(C)C1` (centres undefined), the survival was inactive: 80%.

In the case of `O=C(Nc1ccc(Br)cc1F)c1ncoc1-c1ccco1`, the survival is inactive: 97%. Turning to `Cc1cc(C)cc(NS(=O)(=O)c2ccc3c(c2)CCCN3C(=O)C2CCC2)c1`, the survival is inactive: 74%.

Turning to `COc1ccc(-n2ncc(C(=O)N3CCc4ccccc4C3)c2C2CCN(C(=O)OC(C)(C)C)CC2)cc1`, the survival was inactive: 88%. In the case of `CCc1ccc2oc(C(=O)Nc3nonc3CC)c(C)c2c1`, the survival is inactive: 78%. As to `Cc1nc(-c2ccc(C)c(S(=O)(=O)N3CCC(C(=O)NCc4ccc(Cl)cc4)CC3)c2)no1`, the survival was inactive: 126%. For `COc1ccc(CCNC(=O)C2CCCN(c3nc4c(C)cc(C)cc4s3)C2)cc1OC` (centres undefined) the value was inactive: 81%; for `COc1ccc(C2=C(C)C(=O)N(Cc3ccc(C(=O)NCc4ccc(C)cc4)cc3)S2(=O)=O)cc1`, inactive: 97%; for `Cc1cccc(CN2CCN(CC(=O)NCc3ccc(Cl)cc3)C2=O)c1`, inactive: 72%.

For `Cc1ccc(S(=O)(=O)C(CNC(=O)c2ccccc2F)c2cccs2)cc1` (centres undefined), the survival is inactive: 77%.

On to `CCOC(=O)c1c(NC(=O)c2cc(C(C)C)on2)sc(C)c1C`, for which the survival is inactive: 49%. For `COc1ccc(-c2cc(C(F)(F)F)n3nc(C(=O)NCC45CC6CC(CC(C6)C4)C5)cc3n2)cc1` the value was active: 29%; for `O=C(COc1ccccc1)N(Cc1cccnc1)c1nc2ccc(F)cc2s1`, inactive: 83%; for `CCOc1cc(-c2nc(-c3ccc(Br)cc3)no2)cc(OCC)c1OCC`, inactive: 118%. For `COCCCNC(=O)c1ccc2c(=O)n(Cc3ccc(OC)cc3)c(=O)[nH]c2c1` the value was inactive: 60%; for `Cc1ccc(-c2ccc(=O)n(CC(=O)Nc3cccc(C#N)c3)n2)cc1`, inactive: 112%.

With `CNC(=O)C1CCC(Cn2c(=O)c3sccc3n(CC(=O)NCc3ccc(F)cc3)c2=O)CC1` (centres undefined), the survival is inactive: 73%. For `O=C(C1CCCN(S(=O)(=O)c2ccc(Br)s2)C1)N1CCN(c2ccccc2)CC1` (centres undefined) the value was inactive: 85%; for `CCOc1ccc(-c2nc3c(c(SCC(=O)N4CCCCC4)n2)Cc2ccccc2O3)cc1`, inactive: 69%; for `COc1ccc(NC(=O)c2ccc3c(=O)n4nc(Nc5cccc(Cl)c5C)sc4nc3c2)cc1`, inactive: 67%. For `Cc1c(C(=O)N2CCCCC2)sc(NC(=O)C(C)C)c1C#N` the value was inactive: 94%; for `CC(=O)N1CCCc2cc(S(=O)(=O)N3CCCC(C(=O)Nc4cc(Cl)ccc4C)C3)ccc21` (centres undefined), inactive: 124%; for `CCc1nnc(NC(=O)C2CCN(S(=O)(=O)Cc3ccccc3)CC2)s1`, inactive: 89%.
